The source gives no read counts; variants with many changes may rest on few reads.
B1: LINE1-mini (parent)
chain: GGCAGAGCUCAACACAGCGUGGCAAAGUGGCUGUGGCUAGACUGCC

Variants of: B1
Assay: self-cleavage, relative activity (ratio to wild type); higher = more cleavage; in vitro, sequencing; the parent is a self-cleaving ribozyme

Variant | self-cleavage
GACAGAGCUGAACACAGCAUGGCAAAGUGGCUGUGGCUAGACUGCC | 0.06
GACAGAGAUCAACACAGCGUGGCAAAGUGGCUGUGGCAAGAAUUCC | 0.35
GACAGAGCUGAACACAGCGUGGCAAAUUGGCUGUGGCUAGACUGCC | 0.24
GACAGAGCUCAACAAAGCGUGGCAAAGUGGCUGUGGUAAUACUUCC | 0.19
GACAGAGCUGAACACCGCGUGGCAAAGUGGCUGUGGUUAGACUCCC | 0.02
GACAGAGCUGAACACAGCGUGGCAAAGUGGCUGUGGCUAGAUUUCC | 0.02
GAGAGACCUCAUCAAAGCGUGGCAAAGUGGCUGUGGCUAGACUGCC | 0.14
GACAGAGCUCAAAACAGCGUGAUAAAGUGGCUGUGGCUAGAAUGCC | 0.38
GACAGAGCUCAACACAGGGUGGCACAGUGGCUGUGGUUAGACCGCC | 0.01
GACAGAGCUCAAGACAGCGAGGCGAAGUGGCUGUCGCAAGACUGCC | 0.08
GACAGAGCUCAACAAAGCGUGGCAUAGUGGCUGUGGCUAGACUGCC | 0.11
GACAGAGCUAAACACAGCGUCGAAAAGUGGCUGUGGCUAGACUGCC | 0.05
GAAAGAGCUCAACACAGCGUGGCAAAUUGGCUGUGGCUAGACUGCC | 1.8
GAUAGAGCUUAACACAGCGUGGCAAAGUGGCUGUGGCUUAACUGCC | 0.07
GACAGAGCUCAACACCGCCUGGCAAAGUCGCUGUGGCUAGACUGCC | 0.07
GACAGAGCUGAACACAGCGUGGCAAAGUGGCUGUGCCUAGACUGCC | 0.05
GAUAGACCUCAUCACAGCUUGGCAAAGUGGCUGUGGCUAGACUGCC | 0.32
GACAGAGCUCAACAAAGCGUGACAGAGGAGCCGUGGCUAGACUUCC | 0.06
GACAGAGCUAAACACAGCGAGGUAAAGUGGCUGUGGCUAGACUGUC | 0.1

Variant | self-cleavage
GACAGAGAUCAACACAGCGUGGCAAAGUGGUUGUGGAUGGACUGCC | 0.28
GAUAGAGCUCAACACAGCGUGGCAAAGAGGCUGUGGCUAGACUGCC | 1.62
GACAGAGCUCAACAUCGCGUGGCAAAGUGGCUGUGGCUAGAUUGCC | 0.06
GACAGAGAUCAACACAGCGUGGCACAGUGGCUGUGGCUAGACUGCC | 0.53
GACAGAGCUCAACACAGCGUGGCACUGUGGCUGUGGCUAGACUGCC | 0.29
GACAGAGCUCAACACAGCGUGGCACAGAGGCUGUGUCUAGAAUGCC | 0.12
GAUCGAGCUCAACACAGCGUGGCAAAGUGGCUGUGGCUAGACUGCG | 0.09
GACAGAGCUCAACACAGAGUGGCAAAGUGGCUGUGGUUAGACUGCU | 0.05
GACAGAGCUCAACACAGGGUGGUAAAAUGGCUGUGGAUAGACUGCC | 1.43
GACAGAGAUCAACACAGCGUGGCAAAGUGGCUGUGGCUAGACUGCG | 0.66
GAGAGAGCUCAACACAGCGUUGCAAAGGGGCUGUGGCUAGACUGCC | 0.24
GACAGAGCUCAACACAGGGCGGCAAAGUGGCCGCGGCUAGACUGCC | 0.04
GACAGAGCUCAACAGAGCGUGGCAAACUGGCUGUGGCUAGACUGCC | 0.03
GACAGAGCUAAACACAGCGCGGCAAAGUGGCUGUGGCUAGAGUGCC | 0.02
GACAGAGCUAAACACAGAGUCGCAAAGUGGCUGUGGCUAGACUGCC | 0.05
GAAAGAGCUCACCUCAGCGUGGCAAAGUGGCUGUGGCUAGACUGCC | 0.13
GACAGAGCUCAACAAAGCGUCGCAAAGUGGCUGUGGCUAUACUGCC | 0.13
GACAGAGGUCAACACAGCGUGGUAAAGUGGCUGUGGCUAAACUGCC | 0.2
GAGAGAGCUCAACACAGAGUGGCAAAGUGGCUGUGGCUAGCCUGCC | 0.27

Variant | self-cleavage
GACAGAGCUCAACACAGAGUGGCAAAGUGGCUGUGGCCAGACUGCC | 0.07
GAAAGAGGUAAACACAGCGUGGCAAAGUGGCAGUGGCUAGACUGCC | 0.07
GACAGAGCUCAACACAGCGUGGCCAAGUGGCUGUGUCUGGGCUGUC | 0.01
GACAGAGCUCAACACAGAGUGGCAAAGUGGUUGUGCAUAGACUGCC | 0.01
GACAGAGCUCAACACAGAGUGGCAAAGUGGUUGUCGCUAGACUGCC | 0.04
GACAGAGGUCAACACAGCGUGGCAAAGUGGCUUUGGCUAGACUGCC | 0.03
GACAGAGGUCAACACAGCGUGGCAAAGUGGCUGUGGCUAGGCUCCC | 0.27
GACAGAGUUCUAGACAGCGUGGCAAAGUGGCUUUGGCCAGACUACU | 0.01
GACAGAGCUAAACACAGCGUGGCAAAGUGGCUGUGGAUAGACUGCC | 0.06
GACAGAGCUCAACACAGAGUCGCAAAGUGGGUGUGGCUAGACUGCA | 0.06
GACAGAGCUGUACACAGCGUGGCAAAGUGGCUGUGGCUAGACUCCC | 0.03
GACAGAGCUCAAAACAGCGUGGCAACGUGGCUGUGGCUAGACUGCC | 0.19
GACAGAGUUCAACACAGCGUGGAAAAGUGGCUGGGGAUAGACUGCA | 0.13
GACAGAGCUCAAUACAGCGUGGCUAAGUGGCUGUGGCUAGACUGCC | 0.15
GACAGAGCUUAACACAGCGUACCGAAGUGGCUGUGGCUAGACUGCC | 1.13
GACAGAGCUCAACACAGCGUGGCAACCUGGCUGUGGCUAGACUGCC | 0.33
GACAGAGCUCAACAGAGCGUGGCAAAGUGGCUGUGGCUUGACUGCC | 0.08
GAAAGACCUCAACACAGCGUGGCAACGUCGCUGUGGCUAGACUGCC | 0.51

Reference: the RNAGym collection of RNA variant scans (doi:10.7554/elife.90254)
